These results are taken from paper PMC4336329 (PLoS ONE, 2015).

Out of some 310,000 compounds screened, about 14,000 (4.5%) showed an effect of 50% or more. The effect is printed as a negative number. The list shows a part of the results.
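Further: peak tail current of the secondary pulse compared with the same well before compound.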

The target of the experiment is human ether-à-go-go-related gene (hERG) potassium channel (human, UniProt Q12809). As to the kind of experiment: primary screen, population patch clamp on CHO cells stably expressing hERG.
Chain of human ether-à-go-go-related gene (hERG) potassium channel (Q12809 whole entry, looked up): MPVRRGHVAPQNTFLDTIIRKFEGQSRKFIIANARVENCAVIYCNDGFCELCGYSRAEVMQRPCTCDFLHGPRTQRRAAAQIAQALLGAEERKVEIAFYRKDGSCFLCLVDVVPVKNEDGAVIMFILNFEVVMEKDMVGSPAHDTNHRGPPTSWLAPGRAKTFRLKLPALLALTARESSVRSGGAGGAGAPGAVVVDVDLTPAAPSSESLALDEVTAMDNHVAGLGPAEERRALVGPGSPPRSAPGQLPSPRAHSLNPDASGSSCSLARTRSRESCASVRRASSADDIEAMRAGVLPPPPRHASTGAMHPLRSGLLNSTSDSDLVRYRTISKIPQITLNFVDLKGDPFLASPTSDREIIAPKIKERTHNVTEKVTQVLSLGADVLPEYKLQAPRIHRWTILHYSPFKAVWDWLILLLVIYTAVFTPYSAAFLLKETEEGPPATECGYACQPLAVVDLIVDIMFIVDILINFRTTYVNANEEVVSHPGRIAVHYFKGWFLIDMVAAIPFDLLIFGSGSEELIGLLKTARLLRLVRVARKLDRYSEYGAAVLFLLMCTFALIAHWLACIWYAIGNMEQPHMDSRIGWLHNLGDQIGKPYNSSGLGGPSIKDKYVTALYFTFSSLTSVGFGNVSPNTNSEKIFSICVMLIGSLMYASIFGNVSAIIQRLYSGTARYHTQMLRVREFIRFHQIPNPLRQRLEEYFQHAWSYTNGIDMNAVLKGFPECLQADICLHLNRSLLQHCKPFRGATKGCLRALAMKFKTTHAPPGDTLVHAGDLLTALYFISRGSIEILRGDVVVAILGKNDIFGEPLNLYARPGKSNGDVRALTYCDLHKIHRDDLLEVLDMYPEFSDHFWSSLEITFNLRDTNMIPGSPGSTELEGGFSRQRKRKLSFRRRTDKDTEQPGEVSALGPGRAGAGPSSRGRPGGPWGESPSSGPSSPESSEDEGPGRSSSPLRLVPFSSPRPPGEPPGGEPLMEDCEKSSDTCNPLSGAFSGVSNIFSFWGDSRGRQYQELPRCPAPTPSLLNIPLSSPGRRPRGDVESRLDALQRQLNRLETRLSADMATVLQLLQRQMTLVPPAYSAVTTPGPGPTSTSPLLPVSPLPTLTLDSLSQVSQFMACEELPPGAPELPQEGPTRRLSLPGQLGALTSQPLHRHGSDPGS
As for `CCN(Cc1ccccc1)C(=O)C1CCN(S(=O)(=O)c2ccc3c(c2)OCCO3)CC1`, the “hERG current change (%, negative = inhibition) at 10uM” value is on record as -6.73%.
Next, `Cn1c2c(c(=O)n(C)c1=O)CN(CCCN1CCOCC1)CN2`: -1.29%.
Next, `CCCCOc1ccc(Cc2cnc(N)nc2N)cc1`: -0.891%; `CCOC(=O)c1oc2ccccc2c1NC(=O)COc1ccc(F)cc1`: 14%; `CC(=O)c1cccc(NC(=O)CCn2c(=O)oc3ccccc32)c1`: -6.39%.
The figure for `Cn1c(SCC(=O)NCc2ccc3c(c2)OCO3)nnc1-c1c[nH]c2ccccc12` is -27.8%; for `CCN(CC)CC#CCC(OC)(c1ccccc1)c1ccccc1.Cl` it is -32.5%.
For the compound `Cc1ccc2nc(SCC(=O)Nc3ncccn3)[nH]c2c1`, the “hERG current change (%, negative = inhibition) at 10uM” value is reported as 22.3%.
On to `Cc1cccc(NC(=O)CSc2nnc([C@@H]3CCCN3C(=O)OC(C)(C)C)o2)c1C`, for which the “hERG current change (%, negative = inhibition) at 10uM” value is 10.7%.
The figure for `O=C1CC(C(=O)Nc2ccc(C(=O)N3CCOCC3)cc2)C2(CCCCC2)O1` (centres unmarked) is 8.26%; for `O=S(=O)(Nc1nc(-c2sccc2Cl)cs1)c1cc(Cl)ccc1Cl` it is 13.8%.
The figure for `COc1ccc(CCN(C)c2ncnc3sccc23)cc1OC` is 7.49%; for `COc1ccc(CC(=O)Nc2cc(S(=O)(=O)N3CCCCC3)ccc2C)cc1OC` it is 5.16%.
The figure for `O=C(NCC1CCCO1)c1cccc(NS(=O)(=O)c2ccc(Br)cc2)c1` (centres unmarked) is -16.9%; for `N=C1C(c2ccccc2)=C(O)CN1c1cccc2ccccc12` it is -1.51%.
Consider `COC(=O)c1c(NC(=O)c2ccc(N(C)S(=O)(=O)c3ccc(C)cc3)cc2)sc2c1CCCC2`, for which the “hERG current change (%, negative = inhibition) at 10uM” value is 6.33%.
`CC(=O)Nc1cccc(NC(=O)c2cccc(S(=O)(=O)N3CCN(Cc4ccccc4)CC3)c2)c1`: the “hERG current change (%, negative = inhibition) at 10uM” value is 0.275%.
For the compound `Cc1nc(NS(=O)(=O)c2ccc(Cl)s2)c2c3c(sc2n1)CCCC3`, the “hERG current change (%, negative = inhibition) at 10uM” value was -28.7%.
As to `Cc1ccc(-n2ncc3c(=O)n(CC(=O)OCc4ccccc4)cnc32)cc1`, the “hERG current change (%, negative = inhibition) at 10uM” value is listed as -11.2%.
Next, `Cc1cc(C)c(NC(=O)CN2C(=O)CC(C)S(=O)(=O)c3ccccc32)c(C)c1` (centres unmarked): 20.1%; `CCN(Cc1nc2cc(OC)c(OC)cc2c(=O)[nH]1)C(=O)c1ccc(S(=O)(=O)N(C)C)cc1`: 4.07%; `CC(C)NC(=O)c1ccc(COCC(F)(F)F)cc1`: 18.9%.
Next, `CN(C)S(=O)(=O)c1ccc(C(=O)OCc2ccc(C#N)cc2)cc1`: -11.1%.
